IC50 is the fitted dose that halves viability relative to control wells, and lower means more sensitive; where the fit passes the top or lowest dose, that dose stands as a limit. AUC, from the same fit, is the share of area under the viability curve across the 256-fold dose range; the more sensitive the line, the further below 1.
Compound: COc1ccc(C2=N[C@@H](c3ccc(Cl)cc3)[C@@H](c3ccc(Cl)cc3)N2C(=O)N2CCNC(=O)C2)c(OC(C)C)c1 [Nutlin-3a]
Experiment: Viability of human cancer cell lines after 72 h of drug (GDSC screen)
Protocol: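 Human cancer cell lines in 384-well plates, medium with 10% serum, drug for 72 h over a 256-fold dose range (nine 2-fold or five 4-fold steps up to the top dose). Adherent lines were fixed and stained with the nucleic acid dye Syto60, suspension lines read with resazurin; signal relative to control wells, capped at 0 and 100%. One two-parameter sigmoid per drug and line, fitted in a mixed model over all curves with the slope shared within a line.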

Cell Line | AUC | IC50 [µM]
CaR-1 (large intestine, adherent, top dose 8 µM) | 0.975 | > 8
Calu-3 (lung adenocarcinoma, adherent, top dose 8 µM) | 0.967 | > 8
Calu-6 (lung adenocarcinoma, adherent, top dose 8 µM) | 0.935 | > 8
Caov-4 (ovary, adherent, top dose 8 µM) | 0.979 | > 8
Capan-2 (pancreas, adherent, top dose 8 µM) | 0.983 | > 8
ChaGo-K-1 (non-small cell lung carcinoma, adherent, top dose 8 µM) | 0.936 | > 8
D-247MG (glioma, adherent, top dose 8 µM) | 0.767 | 4.1
D-263MG (glioma, adherent, top dose 8 µM) | 0.957 | > 8
D-283MED (medulloblastoma, adherent, top dose 8 µM) | 0.781 | 3.02
D-336MG (glioma, adherent, top dose 4 µM) | 0.979 | > 4
D-392MG (glioma, adherent, top dose 8 µM) | 0.842 | > 8
D-423MG (glioma, adherent, top dose 8 µM) | 0.97 | > 8
D-502MG (glioma, adherent, top dose 8 µM) | 0.735 | 3.47
D-542MG (glioma, adherent, top dose 8 µM) | 0.982 | > 8
D-566MG (glioma, adherent, top dose 8 µM) | 0.97 | > 8
DAN-G (pancreas, adherent, top dose 8 µM) | 0.991 | > 8
DB (B-cell lymphoma, suspension, top dose 8 µM) | 0.898 | > 8
DBTRG-05MG (glioma, adherent, top dose 8 µM) | 0.735 | 2.66
DEL (lymphoid neoplasm, suspension, top dose 8 µM) | 0.994 | > 8
DG-75 (Burkitt lymphoma, suspension, top dose 8 µM) | 0.945 | > 8
DIFI (large intestine, adherent, top dose 8 µM) | 0.981 | > 8

Cell Line | AUC | IC50 [µM]
DJM-1 (skin, adherent, top dose 8 µM) | 0.982 | > 8
DK-MG (glioma, adherent, top dose 8 µM) | 0.754 | 3.97
DMS-79 (small cell lung carcinoma, suspension, top dose 8 µM) | 0.978 | > 8
DMS-114 (small cell lung carcinoma, adherent, top dose 8 µM) | 0.985 | > 8
DMS-273 (small cell lung carcinoma, adherent, top dose 8 µM) | 0.977 | > 8
DND-41 (T-cell leukaemia, suspension, top dose 8 µM) | 0.99 | > 8
DOHH-2 (B-cell lymphoma, suspension, top dose 8 µM) | 0.766 | 2.88
DOK (head and neck, adherent, top dose 8 µM) | 0.894 | > 8
DOV13 (ovary, adherent, top dose 8 µM) | 0.862 | > 8
DSH1 (bladder, adherent, top dose 8 µM) | 0.984 | > 8
DU-145 (prostate, adherent, top dose 4 µM) | 0.984 | > 4
DU-4475 (breast, suspension, top dose 8 µM) | 0.88 | 5.69
Daudi (Burkitt lymphoma, suspension, top dose 8 µM) | 0.938 | > 8
Detroit562 (head and neck, adherent, top dose 8 µM) | 0.988 | > 8
DoTc2-4510 (cervix, adherent, top dose 8 µM) | 0.982 | > 8
EB2 (Burkitt lymphoma, suspension, top dose 8 µM) | 0.99 | > 8
EB-3 (Burkitt lymphoma, suspension, top dose 8 µM) | 0.982 | > 8
EBC-1 (lung squamous cell carcinoma, adherent, top dose 8 µM) | 0.968 | > 8
EC-GI-10 (oesophagus, adherent, top dose 8 µM) | 0.987 | > 8
ECC10 (stomach, suspension, top dose 8 µM) | 0.927 | > 8
EFM-192A (breast, adherent, top dose 8 µM) | 0.948 | > 8

Cell Line | AUC | IC50 [µM]
EFO-21 (ovary, adherent, top dose 8 µM) | 0.936 | > 8
EFO-27 (ovary, adherent, top dose 8 µM) | 0.958 | > 8
EGI-1 (biliary tract, adherent, top dose 4 µM) | 0.938 | > 4
EHEB (lymphoid neoplasm, suspension, top dose 8 µM) | 0.887 | > 8
EJM (lymphoid neoplasm, semi-adherent, top dose 8 µM) | 0.992 | > 8
EKVX (lung adenocarcinoma, adherent, top dose 8 µM) | 0.941 | > 8
EM-2 (chronic myeloid leukaemia, suspension, top dose 8 µM) | 0.962 | > 8
EMC-BAC-1 (lung adenocarcinoma, adherent, top dose 8 µM) | 0.957 | > 8
EMC-BAC-2 (lung adenocarcinoma, adherent, top dose 8 µM) | 0.735 | 2.7
EN (endometrium, adherent, top dose 8 µM) | 0.984 | > 8
ES1 (Ewing sarcoma, adherent, top dose 8 µM) | 0.979 | > 8
ES3 (Ewing sarcoma, adherent, top dose 4 µM) | 0.9 | > 4
ES4 (Ewing sarcoma, adherent, top dose 8 µM) | 0.737 | 2.67
ES5 (Ewing sarcoma, adherent, top dose 8 µM) | 0.946 | > 8
ES6 (Ewing sarcoma, adherent, top dose 8 µM) | 0.981 | > 8
ES7 (Ewing sarcoma, adherent, top dose 8 µM) | 0.966 | > 8
ES8 (Ewing sarcoma, adherent, top dose 8 µM) | 0.959 | > 8
ES-2 (ovary, adherent, top dose 8 µM) | 0.99 | > 8
ESO26 (oesophagus, adherent, top dose 8 µM) | 0.989 | > 8
ESO51 (oesophagus, semi-adherent, top dose 8 µM) | 0.979 | > 8
ESS-1 (endometrium, adherent, top dose 8 µM) | 0.98 | > 8

Cell Line | AUC | IC50 [µM]
ETK-1 (biliary tract, adherent, top dose 8 µM) | 0.979 | > 8
EVSA-T (breast, adherent, top dose 8 µM) | 0.991 | > 8
EW-1 (Ewing sarcoma, semi-adherent, top dose 8 µM) | 0.989 | > 8
EW-3 (Ewing sarcoma, adherent, top dose 8 µM) | 0.95 | > 8
EW-7 (Ewing sarcoma, semi-adherent, top dose 8 µM) | 0.909 | > 8
EW-11 (Ewing sarcoma, adherent, top dose 8 µM) | 0.979 | > 8
EW-13 (Ewing sarcoma, suspension, top dose 8 µM) | 0.985 | > 8
EW-16 (Ewing sarcoma, adherent, top dose 8 µM) | 0.874 | > 8
EW-18 (Ewing sarcoma, suspension, top dose 8 µM) | 0.958 | > 8
EW-22 (Ewing sarcoma, adherent, top dose 8 µM) | 0.988 | > 8
EW-24 (Ewing sarcoma, semi-adherent, top dose 8 µM) | 0.992 | > 8
EoL-1-cell (haematopoietic neoplasm, suspension, top dose 8 µM) | 0.746 | 2.29
FADU (head and neck, adherent, top dose 8 µM) | 0.981 | > 8
FLO-1 (oesophagus, adherent, top dose 8 µM) | 0.97 | > 8
FTC-133 (thyroid, adherent, top dose 8 µM) | 0.975 | > 8
FU97 (stomach, adherent, top dose 8 µM) | 0.985 | > 8
FU-OV-1 (ovary, adherent, top dose 8 µM) | 0.962 | > 8
Farage (B-cell lymphoma, suspension, top dose 8 µM) | 0.926 | > 8
G-292 Clone A141B1 (osteosarcoma, adherent, top dose 8 µM) | 0.962 | > 8
G-361 (melanoma, adherent, top dose 8 µM) | 0.886 | > 8

Reference: the supplement of paper PMC4967469
